Measurements published in ChEMBL document CHEMBL4888484, “Replenishing the malaria drug discovery pipeline: Screening and hit evaluation of the MMV Hit Generation Library 1 (HGL1) against asexual blood stage Plasmodium falciparum ,using a nano luciferase reporter read-out” (2022).
The campaign covered roughly 150,000 compounds. About 540 (0.36%) showed an effect of 50% or more. The list shows a part of the results.

The compounds below were run on Plasmodium falciparum (assay: Primary screen in NF54 nanoGlo assay, in single point, at 2uM, 72h; a lower Z score goes with more inhibition). Details: timepoint 72 hour.
Assay type: functional, Erythrocyte

SMILES	% Inhibition [%]	Z score
CCCC(=O)N1CCN(c2nc(Cc3ccc(C)cc3)nc3c2cnn3-c2ccccc2)CC1	-20	2.07
Fc1ccc(CCN2CCc3nc(C4CC4)ncc3C2)cc1F	-7	0.94
Cc1ccc2nc(CN3CCc4nocc4C3)cn2c1	2	-0.41
CCCNC(=O)c1ccc(-c2ccc(N3CCCC3)nn2)cc1	16	-1.89
Cc1[nH]c(=O)n(C(C)(C)C)c(=O)c1Br	-10	1.58
Cc1nn(C)c2nc(NCC3(N4CCCC4)CCCC3)sc12	-11	2.07
COc1ccc(CCC(=O)N2CC[C@H](CCOc3ccc(C)cc3)C2)cc1	3	-0.55
O=C(NCCc1noc(C2CCC2)n1)N1CCCC[C@H]1c1ccc(F)cc1	-6	0.6
O=C(Nc1ccnn1C1CCCC1)[C@H]1CC(=O)N(c2ccc(F)c(F)c2)C1	-3	0.29
COc1cccc(CN/C(=N/c2ccc(C(=O)O)cc2)N2CCN(c3ccccc3F)CC2)c1	-6	0.63
COCCn1cncc1CNC(=O)[C@H]1CC12CCCCC2	-15	2.43
CN(C)[C@H]1CCN(C(=O)c2coc(COc3ccc(F)cc3)n2)C1	-5	0.72
CC(C)CC(=O)Nc1nnc(-c2ccc3c(c2)OCO3)s1	-4	0.45
CCOC(=O)c1cc(C(=O)Nc2cc(C)n(Cc3ccc(Cl)cc3Cl)n2)n(C)n1	-8	1
COC(CN1CCC[C@H](N2CCCCC2)C1)OC	10	-1.4
CN1CCN(C(C)(C)CNC(=O)Cn2nnc3ccccc32)CC1	7	-1.23
CCN1CN(S(=O)(=O)c2c[nH]c3cccc(F)c23)CC1=O	7	-1.01
Cc1cc(C(=O)N2CCS(=O)(=O)CC2)c(C)n1-c1ccc(C(C)C)cc1	-3	0.33
COc1ccc(CN2C(=O)CC[C@@]2(C)C(=O)NC2CCCCCC2)c(OC)c1	2	-0.32
O=C(Nn1cnnc1)c1ccc(Oc2ccccc2)o1	17	-2.18
CC(C)c1cccc(/N=C(\NCc2ccccn2)NC(=O)c2cccc(F)c2)c1	-4	0.68
O=C(N[C@H]1COc2ccccc2C1=O)c1[nH]nc2c1CCCC2	-14	1.82

SMILES	% Inhibition [%]	Z score
CC1CN(S(=O)(=O)c2ccc3c(c2)OCCCO3)C(C)CO1 (stereo not given)	-11	1.58
CC(=O)N(C)CC=Cc1ccc(Br)cc1	-9	1.06
CCCN(CCC)S(=O)(=O)N1CCN(Cc2ccnc(N)c2)CC1	-2	0.29
Cc1ccc(Oc2nc(N3CCCCC3)nc3c2CN(Cc2ccccc2Cl)CC3)cc1	-1	0.19
CC(C)(C)OC(=O)CN1CCC[C@@H]1COC(=O)c1ccccc1F	-7	0.76
Cc1cc(F)cc(-n2cc(NC(=O)CCS(C)(=O)=O)nn2)c1	-9	1.14
Cc1ccc(NC(=O)c2csc(-c3ccnc(N4CCOCC4)c3)n2)c(C)c1	-10	1.33
Cc1cc(C)cc(OCC(=O)N2CCCC[C@@H]2CCN2CCCCCC2)c1	-1	0.07
CCCc1cnc(NC(=O)c2ccc(C)[nH]c2=O)s1	-1	0.16
CCCc1c(C(=O)Nc2csnc2OC)cnn1C1CCCC1	-9	1.01
CS(=O)(=O)N1CCCC[C@H]1c1nc(-c2ccccn2)no1	-10	1.22
Cc1cc(C)c(C(=O)N[C@@H](C)CC(=O)O)s1	9	-1.46
O=C1[C@@H](N2CCOCC2)CCCN1Cc1c(F)cccc1Cl	-3	0.46
Cc1cc(C)c(Br)c(C(=O)NC(C)(C)C(N)=O)c1	-11	2
O=C1NC2(CC2)C(=O)N1CCc1ccccc1OC(F)(F)F	-10	1.57
COC(=O)[C@@]1(C)N[C@@H](c2ccc(F)cc2C)[C@H]2C(=O)N(C)C(=O)[C@H]21	-4	0.5
CC(C)C[C@@H](NC(=O)[C@H]1CC[C@H](CNC(=O)[C@@H](N)C(C)C)CC1)C(=O)O	2	-0.3
C=CCNC(=O)N1CCc2nc(N3CCCCC3)nc(N3CCC(C)CC3)c2C1	-13	1.65
Cc1cc(Cl)c(C(=O)NS(=O)(=O)CCCC#N)cc1C	12	-1.34
O=C(NCCc1cccs1)N1CCC([C@H](O)C(F)(F)F)CC1	-10	1.78
COc1cccc(OC)c1OCc1noc(CC2CCCC2)n1	-14	2.25
CN(CCCC#N)Cc1cccc(C#N)c1	-13	1.29

SMILES	% Inhibition [%]	Z score
COc1ccc(CN2C[C@H]3CN(Cc4cccc(C)n4)CCN3C2=O)cc1	3	-0.44
COc1ccccc1[C@H](CNS(=O)(=O)c1cccs1)N1CCCC1	-3	0.53
c1ccc(NCc2ccccc2OCCN2CCOCC2)nc1	-2	0.25
C=CCOC1CCN(C(=O)C2CC2c2cnn(C)c2)CC1 (stereo not given)	-5	0.42
COc1ccc(Nc2ssc(=O)c2Cl)cc1OC	-9	1.67
O=C(O)C1CC1C(=O)NC(C1CCCC1)C(F)(F)F (stereo not given)	3	-0.56
C[C@]1(O)CCN(C(=O)c2ccc3[nH]ccc3c2)C[C@H]1Cc1ccccc1	-7	1.13
CCCc1cnc(N2CCN(C)C(=O)C2)nc1	-10	1.97
COCCN1C[C@@H](Cc2cc(C)c(O)c(C)c2)CC1=O	-13	1.88
CCc1onc(C)c1[C@@H]1CCCN1C(=O)NCc1ccc(F)cc1	-1	0.08
CN1CCN(C(=O)Nc2ccc3c(c2)N(C)S(=O)(=O)N3C)CC1	-3	0.38
CO[C@H]1CN(c2ccc(C)cc2)C12CCN(C(=O)C(C)C)CC2	-19	2.42
Nc1ccc(Oc2ccc3nc(-c4ccc(Br)cc4)c(-c4ccc(Br)cc4)nc3c2)cc1	3	-0.34
CO[C@H]1C[C@H]2CC[C@@H](C1)N2c1nc2ccccc2o1	-8	1.16
COc1cccc2c(N3CCN(c4nccnc4C)CC3)ccnc12	-2	0.37
CC(C)c1csc(C(=O)NCc2n[nH]c(=O)[nH]2)n1	-2	0.41
Cc1cc(C(=O)Nc2cccc(N3CCCC3=O)c2)c(C)s1	-4	0.54
CN(C)[C@@H]1C[C@@H](CO)N(Cc2cccc3c2oc2ccccc23)C1	5	-0.91
C[C@H]1CNC(=O)CCN1C(=O)c1cc(=O)[nH]c2ccccc12	-5	0.75
c1ccc(-c2cc(CN(CCn3cccn3)Cc3cc(-c4ccccc4)no3)on2)cc1	-7	1.16
O=C(COc1ccc(Br)cc1)N(Cc1nnc(-c2ccc(Cl)cc2)o1)C1CCCC1	-4	0.52
COC(=O)NS(=O)(=O)Nc1ccc(Cl)cc1	-7	0.88

SMILES	% Inhibition [%]	Z score
Cc1ncc(CCNC(=O)N[C@H]2CCOCC23CCCC3)s1	-8	1.44
CN(C)c1ccc(NC(=O)C2CCC(c3ccccc3)N(C(=O)NCc3ccccc3)C2)cc1 (stereo not given)	2	-0.21
O=C1NC[C@H]2O[C@H](CCOc3ccccc3C(=O)N3CCN(C4CCCCC4)C[C@@H]13)CC[C@H]2n1cc(CN2CCOCC2)nn1	16	-1.82
CCC(=O)N1CCCNC(=O)[C@@H]1Cc1ccccc1	-9	1.01
CCc1nnsc1C(=O)NCc1ccc(N2CCCCC2)nc1	1	-0.25
COc1cccc(Cn2c(=O)c(C(=O)NCc3ccccn3)nn(-c3ccc(C)c(C)c3)c2=O)c1	-7	0.89
COc1ccc(Cn2ncc(C)c2NC(=O)c2scnc2C2CC2)cc1OC	-8	1.06
CC(=O)NC1(c2noc(C3CCCCCCC3)n2)CCN(C)CC1	-11	1.16
COc1ccccc1N1CCN(c2ncccc2CNC(=O)C2CCCC2)CC1	-23	1.99
CC1C(=O)NCCN1C(=O)C1C2CCCCC21 (stereo not given)	-7	0.84
CN(Cc1ccc(-n2cccn2)cc1)C[C@H]1CCOC1	-15	2.93
CCn1cc(CNC(=O)[C@H]2CCCN(S(=O)(=O)c3cnn(C)c3C)C2)cn1	-4	0.45
Cc1noc(C)c1CCC(=O)N(C)C1CCCCCCC1	-6	0.87
CCOc1ccnc(NCC2(Cn3cccn3)CC2)n1	-18	2.12
O[C@H](COCc1ccccc1)Cn1nnc(-c2ccsc2)n1	-2	0.37
Cc1c(CC(=O)N2CCC[C@H](O)C2)c2c(n1Cc1ccc(F)cc1)CCCC2=O	-14	1.62
CN1CCN(c2ccc(N3CCN(C(=O)COc4ncccn4)CC3)nn2)CC1	-8	1.27
CC(C)(C)c1nnc2ccc(N[C@H](CO)Cc3ccccc3)nn12	13	-1.22
CC(C)n1c(=O)[nH]c2cc(-c3noc(-c4ccc(C(F)(F)F)cc4)n3)ccc21	0	0.01
